T1: ANP (fluorescein/Lys-biotin labelled synthetic peptide)
T1 chain: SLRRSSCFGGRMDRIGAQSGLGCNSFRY

T2: GIP (fluorescein/Lys-biotin labelled synthetic peptide)
T2 chain: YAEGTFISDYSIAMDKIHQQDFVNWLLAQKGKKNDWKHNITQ

T3: GLP-1 (fluorescein/Lys-biotin labelled synthetic peptide)
T3 chain: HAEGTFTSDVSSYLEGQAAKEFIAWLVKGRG

T4: Somatostatin 1-28 (fluorescein/Lys-biotin labelled synthetic peptide)
T4 chain: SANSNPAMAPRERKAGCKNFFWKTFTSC

B1: Wild type Nep (protein)
chain: YDDGICKSSDCIKSAARLIQNMDATTEPCTDFFKYACGGWLKRNVIPETSSRYGNFDILRDELEVVLKDVLQEPKTEDIVAVQKAKALYRSCINESAIDSRGGEPLLKLLPDIYGWPVATENWEQKYGASWTAEKAIAQLNSKYGKKVLINLFVGTDDKNSVNHVIHIDQPRLGLPSRDYYECTGIYKEACTAYVDFMISVARLIRQEERLPIDENQLALEMNKVMELEKEIANATAKPEDRNDPMLLYNKMTLAQIQNNFSLEINGKPFSWLNFTNEIMSTVNISITNEEDVVVYAPEYLTKLKPILTKYSARDLQNLMSWRFIMDLVSSLSRTYKESRNAFRKALYGTTSETATWRRCANYVNGNMENAVGRLYVEAAFAGESKHVVEDLIAQIREVFIQTLDDLTWMDAETKKRAEEKALAIKERIGYPDDIVSNDNKLNNEYLELNYKEDEYFENIIQNLKFSQSKQLKKLREKVDKDEWISGAAVVNAFYSSGRNQIVFPAGILQPPFFSAQQSNSLNYGGIGMVIGHEITHGFDDNGRNFNKDGDLVDWWTQQSASNFKEQSQCMVYQYGNFSWDLAGGQHLNGINTLGENIADNGGLGQAYRAYQNYIKKNGEEKLLPGLDLNHKQLFFLNFAQVWCGTYRPEYAVNSIKTDVHSPGNFRIIGTLQNSAEFSEAFHCRKNSYMNPEKKCRVW
B2: Nep-G399V/G714K (protein)
chain: YDDGICKSSDCIKSAARLIQNMDATTEPCTDFFKYACGGWLKRNVIPETSSRYGNFDILRDELEVVLKDVLQEPKTEDIVAVQKAKALYRSCINESAIDSRGGEPLLKLLPDIYGWPVATENWEQKYGASWTAEKAIAQLNSKYGKKVLINLFVGTDDKNSVNHVIHIDQPRLGLPSRDYYECTGIYKEACTAYVDFMISVARLIRQEERLPIDENQLALEMNKVMELEKEIANATAKPEDRNDPMLLYNKMTLAQIQNNFSLEINGKPFSWLNFTNEIMSTVNISITNEEDVVVYAPEYLTKLKPILTKYSARDLQNLMSWRFIMDLVSSLSRTYKESRNAFRKALYVTTSETATWRRCANYVNGNMENAVGRLYVEAAFAGESKHVVEDLIAQIREVFIQTLDDLTWMDAETKKRAEEKALAIKERIGYPDDIVSNDNKLNNEYLELNYKEDEYFENIIQNLKFSQSKQLKKLREKVDKDEWISGAAVVNAFYSSGRNQIVFPAGILQPPFFSAQQSNSLNYGGIGMVIGHEITHGFDDNGRNFNKDGDLVDWWTQQSASNFKEQSQCMVYQYGNFSWDLAGGQHLNGINTLGENIADNGGLGQAYRAYQNYIKKNGEEKLLPGLDLNHKQLFFLNFAQVWCGTYRPEYAVNSIKTDVHSPKNFRIIGTLQNSAEFSEAFHCRKNSYMNPEKKCRVW

Legend:
[1] = target: A-beta 1-40 (fluorescein/Lys-biotin labelled synthetic peptide)
[2] = target: T1, ANP (fluorescein/Lys-biotin labelled …)
[3] = target: Angiotensin (fluorescein/Lys-biotin labelled synthetic peptide)
[4] = target: Bradykinin (fluorescein/Lys-biotin labelled synthetic peptide)
[5] = target: T2, GIP (fluorescein/Lys-biotin labelled …)
[6] = target: T3, GLP-1 (fluorescein/Lys-biotin labelled …)
[7] = target: Glucagon (fluorescein/Lys-biotin labelled synthetic peptide)
[8] = target: T4, Somatostatin 1-28 …

Protein | kcat/KM [1] [M⁻¹ s⁻¹] | kcat/KM [2] [M⁻¹ s⁻¹] | kcat/KM [3] [M⁻¹ s⁻¹] | kcat/KM [4] [M⁻¹ s⁻¹] | kcat/KM [5] [M⁻¹ s⁻¹] | kcat/KM [6] [M⁻¹ s⁻¹] | kcat/KM [7] [M⁻¹ s⁻¹] | kcat/KM [8] [M⁻¹ s⁻¹] | ratio of kcat/KM, mutant vs wild type [1] | ratio of kcat/KM, mutant vs wild type [2] | ratio of kcat/KM, mutant vs wild type [3] | ratio of kcat/KM, mutant vs wild type [4] | ratio of kcat/KM, mutant vs wild type [5] | ratio of kcat/KM, mutant vs wild type [6] | ratio of kcat/KM, mutant vs wild type [7] | ratio of kcat/KM, mutant vs wild type [8]
B1 | 13000 | 290000 | 1.2e+06 | 490000 | 460 | 140000 | 250000 | 560000 | – | – | – | – | – | – | – | –
B2 | 59000 | 26000 | 16000 | 150 | 160 | 38000 | 100000 | 4100 | 4.5 | 0.088 | 0.014 | 0.00031 | 0.34 | 0.27 | 0.41 | 0.0073

Source: patent publication US20120237496
